The supplement of paper PMC3334620
Over roughly 33,000 sequences, “E-score (-0.5 to 0.5)” has its median near -0.056; the highest 2% begin near 0.38. The list shows a part of the results.

Biological target: Stb4 (UniProt P50104)
Experiment: PBM E-score (8-mer binding enrichment) (E-score (-0.5 to 0.5)); higher = stronger / more preferred TF binding; most listed sequences are background and not binding sites
Details: protein concentration: 200 nM; construct: GST-DNA-binding domain
In short: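 GST-tagged yeast TFs (full-length or DNA-binding domain) were made by PURExpress in vitro transcription/translation and applied at about 100-200 nM to universal all-10-mer Agilent arrays. The arrays were made double-stranded by primer extension, on fresh or once-stripped slides. Bound protein was detected with fluorescent anti-GST, and scans were normalised with masliner. Each ungapped eight-base word, pooled with its reverse complement, received an E-score (modified Wilcoxon-Mann-Whitney statistic) from the Universal PBM Analysis Suite.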

Row | Sequence | PBM E-score
1 | GCGGTGTA | -0.00948
2 | AGATACCT | -0.223
3 | CTAGAAAG | -0.188
4 | TGAATGAA | -0.00752
5 | CGACTTTA | -0.00194
6 | ATATCAGC | -0.0309
7 | GGGCAATA | 0.0595
8 | AACGTGTA | -0.15
9 | AAAGACGG | 0.109
10 | CCAATGCA | -0.246
11 | AGAGAAAC | -0.179
12 | AGAACCCC | 0.0873
13 | TAACGTCA | -0.165
14 | CTGGGGCA | -0.3
15 | GTAAACGA | 0.0686
16 | GCGAGAAA | -0.00939
17 | AACCGGCC | 0.218
18 | GTGACTGA | -0.164
19 | AAGGCGCA | -0.155
20 | CCACCTCG | 0.124
21 | AAAAGTAA | -0.0834
22 | ACTGCCTA | -0.32
23 | ACATCCAG | -0.261
24 | AGGTGAAT | 0.0258
25 | CGATAGCC | 0.163

Row | Sequence | PBM E-score
26 | CCGAAAGG | 0.363
27 | CACGACGG | 0.0117
28 | CCTGTTCG | 0.0877
29 | AACTTCAT | -0.124
30 | GGGATTCA | 0.103
31 | TGTATGAA | 0.072
32 | CTCGTATA | -0.107
33 | GAGGGGCA | 0.00312
34 | GGAAGGTA | 0.104
35 | GAGTAACC | 0.134
36 | CAATGAGG | -0.26
37 | AGTGCTAT | -0.192
38 | CAATAGGC | -0.0832
39 | CTGTATGC | -0.0901
40 | GGGGGGAA | -0.0796
41 | GAAAGATC | 0.036
42 | ACAAGATA | -0.175
43 | CGCCAACG | -0.0712
44 | AGCCCCCG | 0.155
45 | GGACGGAA | 0.328
46 | GGTTGCCA | 0.0839
47 | GCAGCGAC | -0.0881
48 | ATGACTAC | -0.24
49 | CTAAGCGA | 0.147
50 | GCGCAGCA | -0.15

Row | Sequence | PBM E-score
51 | GCTCCTAC | -0.092
52 | CCAGTAAG | -0.167
53 | AGCTAGGC | -0.164
54 | ACGTCCCA | -0.315
55 | CATGTCGC | -0.071
56 | GGTACGGA | 0.289
57 | AGGGTAGA | -0.166
58 | ACTGCGAA | -0.251
59 | ACGCTTTG | 0.035
60 | GCTATCCC | 0.0192
61 | AGCGTAAG | -0.0254
62 | AAGCAAAT | -0.2
63 | AGGACCAG | -0.148
64 | ATCACGAG | -0.175
65 | CAGCCTAG | -0.0857
66 | ATCGTTGC | -0.0155
67 | ATTGAACG | -0.152
68 | CTGGTAAA | -0.12
69 | ACTGGCGC | -0.175
70 | CCCTTCTA | -0.209
71 | CGCGGACG | 0.162
72 | GGCACAGA | 0.121
73 | AGCCGCCT | 0.0445
74 | ACTCTGAT | -0.116
75 | ACATCACA | -0.0991

Row | Sequence | PBM E-score
76 | AACTACTA | -0.0423
77 | GCGTCAGA | -0.194
78 | GCCGATTA | 0.267
79 | ATTGCCCC | -0.12
80 | CCAGGCCC | -0.0986
81 | CCTACTAC | -0.0728
82 | TCAATCGA | -0.15
83 | ATCCCAAA | 0.0397
84 | AGAAACAG | -0.141
85 | CAGAGTGG | -0.288
86 | GATTACCA | 0.0702
87 | AAAGTAGT | -0.179
88 | CATTAGGG | -0.255
89 | AGACGCCT | -0.179
90 | ACGTAGTG | -0.13
91 | CTAATATA | -0.148
92 | AAGACGCC | -0.109
93 | AGGCCAGG | -0.0735
94 | ATCAAAAG | 0.024
95 | TAACTGGA | -0.125
96 | GCCGTGCA | -0.0831
97 | GGCCTACC | 0.0786
98 | ATGAGTAC | -0.102
99 | CCTAGGTC | -0.139
100 | CCTCGTAC | -0.0299

Row | Sequence | PBM E-score
101 | AACTTTTA | -0.087
102 | CTGTCAAG | -0.148
103 | CCTCAAAA | -0.123
104 | GCTTTACC | 0.157
105 | CTGACAAG | -0.194
106 | GGAACCCC | 0.00388
107 | GCCTGAAA | 0.0653
108 | GCGCACCC | 0.167
109 | ACACACGG | 0.157
110 | AACCGACC | 0.271
111 | GAATAACC | 0.053
112 | ATGCTGAG | -0.229
113 | CAACGCAG | -0.0853
114 | GTAGCCGA | 0.4
115 | CACCTGCA | -0.202
116 | ACAGACGC | -0.0352
117 | ACCCTTTC | -0.0625
118 | GAACGTGA | -0.031
119 | GCCTCGTA | -0.0917
120 | CATGCTAA | -0.248
121 | GACGCTCC | 0.0698
122 | GGGCGCCC | 0.0969
123 | CGTCGGAG | 0.275
124 | CTAATGCA | -0.254
125 | ATAAACCG | 0.178

Row | Sequence | PBM E-score
126 | CACGTCTC | 0.145
127 | CAGATATC | -0.109
128 | ACGGTGCC | 0.0903
129 | ACAAAGTC | -0.145
130 | AGTGTCAA | -0.00351
131 | ACTAGACT | -0.0653
132 | CCCGCACG | 0.142
133 | ACCTAGGT | -0.138
134 | AGTGAAAA | 0.128
135 | CCGCTGAC | 0.0389
136 | GAATCACC | -0.118
137 | GTATCGCA | -0.0906
138 | CGGGACCG | 0.353
139 | ACTGGTCT | 0.116
140 | CGCAGTTA | 0.0787
141 | AATAAGCC | 0.00782
142 | CCGCCTGA | 0.0156
143 | ATGAGCAT | -0.0464
144 | CAGGTTTA | 0.0854
145 | AGCGATGA | -0.0654
146 | ATGAGAAA | -0.205
147 | TAAGACGA | -0.263
148 | CTGTAATC | -0.184
149 | AGAGATCA | -0.261
150 | ATCGAAAT | -0.0429

Row | Sequence | PBM E-score
151 | ACGGAACT | 0.35
152 | CAAGTTCG | 0.0949
153 | ATCGACTA | -0.21
154 | CAAGATGA | -0.37
155 | ACCCAAGG | 0.0231
156 | TAACGGGA | 0.236
157 | TATCAGCA | -0.165
158 | ATATGTAA | -0.226
159 | ATAATGGG | -0.0513
160 | CAAGATAA | -0.11
161 | CGGACGAC | 0.164
162 | ACTCCGTA | 0.0548
163 | AGACCAGC | -0.326
164 | GACCGCAC | 0.0279
165 | CTTATCGC | 0.0012
166 | TGGCACCA | -0.156
167 | ACGGTTCC | 0.113
168 | ATTGTGGG | 0.00532
169 | GCAGTCCA | -0.229
170 | AGCGCGAT | -0.0326
171 | GCTCCGAC | 0.238
172 | ATCTGGGC | -0.0904
173 | ATTCTGCA | -0.176
174 | ATGCGCCA | -0.113
175 | AGACGTTC | -0.0788

Row | Sequence | PBM E-score
176 | ACCTAAAG | -0.0577
177 | GTCAAGAC | 0.00172
178 | CCAAACCG | 0.124
179 | AGGGAGAA | -0.0826
180 | CAACCAAA | 0.0796
181 | ACAAGTAG | -0.182
182 | AACTCTAC | -0.138
183 | CCACTACA | -0.284
184 | CATTGCTA | -0.158
185 | CCTCTTAA | -0.0505
186 | ATTTCGCA | 0.0506
187 | AAGGTCTG | -0.102
188 | CCAATTCG | 0.077
189 | AGTAAGCC | 0.0217
190 | AGATAAGC | -0.0828
191 | CGTAAGTA | 0.0835
192 | CTCACATC | -0.02
193 | CCCAAAGG | -0.118
194 | ACGATCGG | 0.246
195 | CCTGAGAC | -0.208
196 | CGCCGTTC | 0.132
197 | GAGCTACA | -0.033
198 | CATATATA | 0.0928
199 | AGGGACCC | -0.0037
200 | AGTAAAGC | 0.0678

Row | Sequence | PBM E-score
201 | TCCTTTCA | -0.0195
202 | AACAGGAC | -0.0941
203 | AACCGCCG | 0.22
204 | AGACAATG | 0.0133
205 | AAATGCGC | -0.041
206 | GTGCAATA | -0.189
207 | AACCGTTA | -0.1
208 | GACCCATA | -0.0346
209 | GATAATGA | -0.00765
210 | AGGTGTCC | -0.117
211 | AAGAAAGT | 0.0782
212 | ACTCTATA | 0.127
213 | CATCGTAA | -0.0818
214 | GGTCATCA | -0.197
215 | ACTCACGC | -0.151
216 | GACCCCTC | -0.0605
217 | GACCACAC | -0.0281
218 | GCGCGCGC | 0.0819
219 | GGCCCTAC | -0.0358
